Assay results from the supplement of paper PMC3334620.
The full ranking holds about 33,000 sequences; the median of “E-score (-0.5 to 0.5)” is about -0.013, and the highest 2% start at about 0.3. The list shows a part of the results.

These sequences were tested against T1, Msn1 (UniProt P22148) (assay: PBM E-score (8-mer binding enrichment) (E-score (-0.5 to 0.5)); higher = stronger / more preferred TF binding; most listed sequences are background and not binding sites). Conditions: protein concentration: 200 nM; construct: GST-full length.
T1 sequence: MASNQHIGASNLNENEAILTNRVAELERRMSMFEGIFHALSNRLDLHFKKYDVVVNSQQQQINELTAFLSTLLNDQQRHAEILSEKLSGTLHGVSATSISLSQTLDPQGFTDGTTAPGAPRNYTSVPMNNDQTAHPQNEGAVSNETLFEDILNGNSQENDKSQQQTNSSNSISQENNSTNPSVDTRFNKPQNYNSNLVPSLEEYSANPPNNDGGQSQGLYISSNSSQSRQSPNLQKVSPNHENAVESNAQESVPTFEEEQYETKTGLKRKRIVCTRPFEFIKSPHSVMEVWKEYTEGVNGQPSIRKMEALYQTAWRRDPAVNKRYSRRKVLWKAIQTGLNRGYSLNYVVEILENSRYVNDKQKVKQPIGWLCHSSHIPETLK
Method in brief: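 PURExpress in vitro transcription/translation supplied GST-tagged yeast transcription factors, either full-length or DNA-binding domain. Applied at about 100-200 nM to universal all-10-mer Agilent arrays double-stranded by primer extension, the bound protein was detected with fluorescent anti-GST. E-scores, modified Wilcoxon-Mann-Whitney statistics, were given by the Universal PBM Analysis Suite to ungapped eight-base words pooled with their reverse complements after masliner normalisation.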

Compared with AACCTCCA, GCGGGAAC is higher in “PBM E-score” value: -0.27 for the first, -0.169 for the second.

Compared with AATAAGCA, GAACGAGC is higher in “PBM E-score” value: 0.0436 for the first, 0.145 for the second.

Compared with AGGGTCGC, CCGGGCTC is higher in “PBM E-score” value: -0.229 for the first, -0.119 for the second.

First: ACGCCAAG
Second: AGGACACG
The “PBM E-score” value of the first is lower: -0.249 for the first, 0.467 for the second.

Going from AATTATCA to AGTCTTGA, the “PBM E-score” value rises from 0.102 to 0.127.

Compared with AACTGGAC, ACTGGGGA is lower in “PBM E-score” value: 0.128 for the first, -0.247 for the second.

First: ATACGCAA
Second: CGATTCAC
The “PBM E-score” value of the first is higher: -0.0647 for the first, -0.141 for the second.

Going from AAGAAGCG to TACCTACA, the “PBM E-score” value rises from -0.0636 to -0.026.

First: AACTTTCC
Second: ACCCGAGT
The “PBM E-score” value of the first is higher: -0.116 for the first, -0.198 for the second.

First: ATAAGAAA
Second: ACTAACCG
The “PBM E-score” value of the first is higher: 0.0285 for the first, -0.0257 for the second.

First: TAGTCGGA
Second: ATCGTAGA
The “PBM E-score” value of the first is higher: 0.104 for the first, -0.0369 for the second.

Compared with TTATCGAA, CTAACTCC is lower in “PBM E-score” value: 0.091 for the first, -0.274 for the second.

First: CTTACGTA
Second: AACGAAAA
The “PBM E-score” value of the first is lower: 0.0775 for the first, 0.207 for the second.

First: AACGAGAA
Second: CTATAGAA
The “PBM E-score” value of the first is higher: 0.115 for the first, -0.0562 for the second.

Compared with GATGATCC, AGGTGGTG is higher in “PBM E-score” value: -0.0558 for the first, 0.00496 for the second.

Going from CTAACCGC to CCGGAGAG, the “PBM E-score” value rises from -0.139 to -0.033.

Going from ATGCTTTC to ACGGACCG, the “PBM E-score” value falls from 0.0201 to -0.0826.

First: GAACTTGA
Second: AAAAGAAG
The “PBM E-score” value of the first is higher: 0.133 for the first, 0.122 for the second.

Compared with GGTATTTA, GTTGTCGA is lower in “PBM E-score” value: 0.0759 for the first, 0.00891 for the second.

Going from GATGCACA to ATTTCCCC, the “PBM E-score” value rises from -0.19 to -0.0769.

Going from AGCACATA to ATGATGTA, the “PBM E-score” value rises from -0.0583 to 0.173.

Compared with ACTCGGGC, ATTACCGG is lower in “PBM E-score” value: 0.0184 for the first, -0.0349 for the second.

Going from CATCCTGG to TCTAGTAA, the “PBM E-score” value rises from 0.0159 to 0.0589.

First: ATGGATGG
Second: CGGCTCGA
The “PBM E-score” value of the first is lower: -0.172 for the first, 0.0667 for the second.

First: AGTTTCGA
Second: CCATTGGC
The “PBM E-score” value of the first is lower: -0.118 for the first, -0.0912 for the second.

Compared with ATTAGCAG, ATTACTAC is higher in “PBM E-score” value: -0.19 for the first, -0.0376 for the second.

Going from TCGCGCCA to TCATTAGA, the “PBM E-score” value rises from -0.0985 to 0.0367.

Compared with AGACCTGG, ACAGCCGT is higher in “PBM E-score” value: -0.108 for the first, 0.0116 for the second.

Compared with CGTAGGAA, AAGTTATA is higher in “PBM E-score” value: -0.153 for the first, 0.175 for the second.

First: ACCGAACC
Second: ATGCTAGA
The “PBM E-score” value of the first is lower: -0.198 for the first, 0.0751 for the second.

Compared with GGCGTATA, ACAAAGCG is higher in “PBM E-score” value: -0.126 for the first, 0.125 for the second.

First: GATTAACA
Second: ACGGAGAC
The “PBM E-score” value of the first is higher: 0.201 for the first, 0.164 for the second.

Compared with GCTAGCGA, AGCAGGCA is lower in “PBM E-score” value: -0.046 for the first, -0.302 for the second.

First: TACCACAA
Second: TCCTAACA
The “PBM E-score” value of the first is lower: 0.19 for the first, 0.254 for the second.

Going from AGTCGATC to AAAACACC, the “PBM E-score” value rises from -0.11 to 0.0787.

Going from CTTCAGCC to ACGTAGCG, the “PBM E-score” value rises from -0.206 to -0.138.

Compared with ACGACAAA, AAGAGTCT is lower in “PBM E-score” value: 0.435 for the first, -0.0597 for the second.

Compared with CAAGGTCG, CACTGAAG is higher in “PBM E-score” value: -0.221 for the first, -0.0489 for the second.

First: CGGGCCTC
Second: CGAGTTAA
The “PBM E-score” value of the first is lower: -0.114 for the first, 0.0871 for the second.

Going from AATTGGTA to GCTGTCTA, the “PBM E-score” value falls from 0.0485 to -0.14.

Compared with CGATTCAG, CCATTAGC is lower in “PBM E-score” value: -0.00412 for the first, -0.122 for the second.

First: TCCCGACA
Second: AAAGAATA
The “PBM E-score” value of the first is higher: 0.255 for the first, 0.199 for the second.

Going from GTCCTCTA to AGACTTCA, the “PBM E-score” value rises from -0.00417 to 0.00292.

Going from AATAAGAA to CAACGGAC, the “PBM E-score” value falls from 0.262 to 0.121.

Compared with ATGGGCCC, CTTCGTGC is higher in “PBM E-score” value: -0.307 for the first, -0.0725 for the second.

Compared with AGGGCGTC, CTCCCCTA is lower in “PBM E-score” value: -0.259 for the first, -0.263 for the second.

Compared with ATTTTACA, CGCTTGCA is lower in “PBM E-score” value: 0.0389 for the first, -0.183 for the second.

First: CGCCGCAG
Second: ACGCCAGC
The “PBM E-score” value of the first is lower: -0.323 for the first, -0.195 for the second.

Going from TAGCCTCA to GGCGACTA, the “PBM E-score” value falls from -0.0568 to -0.117.

Going from CTCAATCC to GCATGCAC, the “PBM E-score” value falls from 0.055 to -0.107.

Compared with CCGAATCA, GCCATTAA is higher in “PBM E-score” value: -0.0491 for the first, 0.116 for the second.

First: ACAGTCCC
Second: TAGGGGAA
The “PBM E-score” value of the first is higher: -0.108 for the first, -0.198 for the second.

First: AGAAGGAT
Second: CCTTGAAG
The “PBM E-score” value of the first is lower: -0.336 for the first, -0.146 for the second.

Going from ACCCCATA to GACTCCCA, the “PBM E-score” value falls from -0.0715 to -0.145.

Going from GCGTTATA to GACACGAA, the “PBM E-score” value rises from -0.053 to 0.204.

Going from GGGTCGTA to CATGGGTC, the “PBM E-score” value rises from -0.204 to -0.128.

First: AGCTCTAG
Second: GAATCAAC
The “PBM E-score” value of the first is lower: -0.0245 for the first, 0.0586 for the second.

First: TACGTGCA
Second: CACATCAA
The “PBM E-score” value of the first is lower: -0.17 for the first, -0.00024 for the second.

Going from ATCCCCCC to CGTATATC, the “PBM E-score” value rises from -0.456 to -0.154.

First: ACCGCAAC
Second: CGTGCCTA
The “PBM E-score” value of the first is higher: 0.0188 for the first, -0.195 for the second.

Compared with CTCAGGCC, CTTTTCCA is higher in “PBM E-score” value: -0.235 for the first, -0.215 for the second.

Going from ACTCCGCT to AGTACTCG, the “PBM E-score” value rises from -0.208 to 0.107.

First: CGCCAGGC
Second: AGGTTAGA
The “PBM E-score” value of the first is lower: -0.174 for the first, -0.0736 for the second.

Going from AGTTCACA to TCAATCAA, the “PBM E-score” value rises from -0.0407 to 0.0177.

Going from ATGGAGTG to ACTATCAT, the “PBM E-score” value rises from -0.193 to 0.0702.

Going from AAGTGAAG to AAACGGCT, the “PBM E-score” value falls from -0.134 to -0.197.

Compared with AGTAACAA, CGCCTACA is lower in “PBM E-score” value: 0.0634 for the first, 0.0079 for the second.

Going from CGCCTAGC to GCACGCAA, the “PBM E-score” value rises from -0.241 to -0.195.

Going from GGAATATA to CTACAGAG, the “PBM E-score” value falls from 0.206 to -0.0572.

First: ATGGTGGC
Second: GAGTCATA
The “PBM E-score” value of the first is lower: -0.276 for the first, 0.0749 for the second.

First: ATATTTAC
Second: GGAACGGA
The “PBM E-score” value of the first is higher: 0.16 for the first, -0.00048 for the second.

First: AAAAGTGA
Second: CCGAGCTA
The “PBM E-score” value of the first is higher: 0.0095 for the first, -0.0148 for the second.

First: CACGAGGA
Second: CATGCAAG
The “PBM E-score” value of the first is higher: 0.078 for the first, -0.182 for the second.

Going from TATGTAGA to AGATGAGC, the “PBM E-score” value falls from 0.0206 to -0.0343.

Compared with ATCCTGTA, AGCAAATG is lower in “PBM E-score” value: 0.184 for the first, 0.0209 for the second.

Compared with TAGAGACA, GGCATTAC is lower in “PBM E-score” value: 0.377 for the first, 0.0489 for the second.

First: GAGATCTC
Second: CAATCGGG
The “PBM E-score” value of the first is lower: 0.0688 for the first, 0.0731 for the second.

Going from CTGCGTCC to GGCTTTAA, the “PBM E-score” value falls from -0.0512 to -0.102.

First: ATCGTGAG
Second: CGCGTCAA
The “PBM E-score” value of the first is lower: -0.19 for the first, 0.0339 for the second.

Compared with AGCCAAAC, CGAATCTC is higher in “PBM E-score” value: -0.0538 for the first, 0.025 for the second.

Compared with ATACTAAA, CCGCTGCC is lower in “PBM E-score” value: 0.164 for the first, -0.125 for the second.

First: CAAATACC
Second: ACGACGCC
The “PBM E-score” value of the first is higher: 0.154 for the first, -0.176 for the second.

Going from ATGCGAGA to CATCAAAG, the “PBM E-score” value falls from 0.0519 to -0.0249.

First: ACTACGTG
Second: AAACCTTA
The “PBM E-score” value of the first is lower: -0.236 for the first, 0.0206 for the second.

First: AAACTATA
Second: CAGTCCGC
The “PBM E-score” value of the first is higher: 0.0437 for the first, -0.118 for the second.

Going from CACCGTGG to GGCTGCGA, the “PBM E-score” value rises from -0.177 to -0.0567.
